Measurements as given in PMC10543392.
No constants are given. Whether binding was seen depends on the method and setting. In cells and extracts the contact can be indirect. Some entries that bind do so weakly or less than the wild type. For part of these data: Sequences can lack the tags named with a protein. One block for each molecule: values may come before it.

Protein sequences, listed by entry. Tags and fused reporters are not part of them.
UniProt P61244: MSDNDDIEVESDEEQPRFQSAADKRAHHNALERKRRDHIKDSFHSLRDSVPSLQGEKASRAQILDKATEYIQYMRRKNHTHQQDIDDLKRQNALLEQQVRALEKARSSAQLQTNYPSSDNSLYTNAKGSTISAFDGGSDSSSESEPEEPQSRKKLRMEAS
UniProt Q969R5: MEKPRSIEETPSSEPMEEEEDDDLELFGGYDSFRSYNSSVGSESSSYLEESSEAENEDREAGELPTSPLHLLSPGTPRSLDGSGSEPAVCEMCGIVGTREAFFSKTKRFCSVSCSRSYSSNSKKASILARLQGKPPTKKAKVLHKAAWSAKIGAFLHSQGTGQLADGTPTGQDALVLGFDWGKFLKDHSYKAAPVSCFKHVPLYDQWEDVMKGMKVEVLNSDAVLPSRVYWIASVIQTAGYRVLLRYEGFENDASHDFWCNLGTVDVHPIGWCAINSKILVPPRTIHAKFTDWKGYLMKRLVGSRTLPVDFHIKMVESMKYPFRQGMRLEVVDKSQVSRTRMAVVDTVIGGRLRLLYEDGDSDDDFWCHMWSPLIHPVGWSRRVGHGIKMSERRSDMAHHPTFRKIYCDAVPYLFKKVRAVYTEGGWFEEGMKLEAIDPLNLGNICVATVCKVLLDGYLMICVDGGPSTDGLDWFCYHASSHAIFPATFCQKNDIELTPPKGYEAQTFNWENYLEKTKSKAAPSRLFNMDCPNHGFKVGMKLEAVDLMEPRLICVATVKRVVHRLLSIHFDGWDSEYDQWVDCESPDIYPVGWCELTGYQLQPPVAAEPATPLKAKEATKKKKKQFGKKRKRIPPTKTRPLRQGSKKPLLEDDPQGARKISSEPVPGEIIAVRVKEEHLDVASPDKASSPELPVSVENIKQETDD

Columns and labels:
[1] = target: T1, MGA p.C623*, Flag-tagged (UniProt Q8IWI9); assay: co-IP; Flag-tagged MGA constructs co-expressed with HA-tagged MAX in HEK293T cells; immunoprecipitation, then western blot for components of the ncPRC1.6 complex
T1 sequence: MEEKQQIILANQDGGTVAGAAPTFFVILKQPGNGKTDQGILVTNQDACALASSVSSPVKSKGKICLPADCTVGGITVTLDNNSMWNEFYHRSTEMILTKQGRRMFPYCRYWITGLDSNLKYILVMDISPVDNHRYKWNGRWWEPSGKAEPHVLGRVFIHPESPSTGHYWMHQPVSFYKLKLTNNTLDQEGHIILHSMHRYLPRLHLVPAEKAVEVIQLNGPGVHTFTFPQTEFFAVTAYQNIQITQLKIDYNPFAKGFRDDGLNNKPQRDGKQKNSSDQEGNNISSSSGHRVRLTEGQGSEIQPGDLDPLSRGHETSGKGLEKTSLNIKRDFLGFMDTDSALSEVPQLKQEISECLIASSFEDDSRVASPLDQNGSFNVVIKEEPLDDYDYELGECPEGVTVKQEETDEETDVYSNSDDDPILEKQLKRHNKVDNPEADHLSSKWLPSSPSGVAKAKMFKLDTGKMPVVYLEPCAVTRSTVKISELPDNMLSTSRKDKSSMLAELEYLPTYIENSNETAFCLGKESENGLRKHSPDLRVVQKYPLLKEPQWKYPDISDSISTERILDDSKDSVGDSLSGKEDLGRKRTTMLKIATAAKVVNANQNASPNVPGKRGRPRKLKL

[2] = target: full-length MGA (WT-MGA), Flag-tagged (UniProt Q8IWI9); assay: as above

- binding [1]: no binding
- binding [2]: binds
Molecule: HA-tagged MAX (from UniProt P61244 1-160)

- binding [1]: no binding
- binding [2]: binds
Molecule: L3MBTL2 (from UniProt Q969R5 1-705)

- binding [1]: no binding
- binding [2]: binds
B1: PCGF6 (protein, UniProt Q9BYE7 1-350)
chain: MEGVAVVTAGSVGAAKTEGAAALPPPPPVSPPALTPAPAAGEEGPAPLSETGAPGCSGSRPPELEPERSLGRFRGRFEDEDEELEEEEELEEEEEEEEEDMSHFSLRLEGGRQDSEDEEERLINLSELTPYILCSICKGYLIDATTITECLHTFCKSCIVRHFYYSNRCPKCNIVVHQTQPLYNIRLDRQLQDIVYKLVINLEEREKKQMHDFYKERGLEVPKPAVPQPVPSSKGRSKKVLESVFRIPPELDMSLLLEFIGANEGTGHFKPLEKKFVRVSGEATIGHVEKFLRRKMGLDPACQVDIICGDHLLEQYQTLREIRRAIGDAAMQDGLLVLHYGLVVSPLKIT
